In the RNAGym collection of RNA variant scans (doi:10.1093/nar/gkz1192):
Read counts are not given, so values of variants with three or more changes are uncertain.

B1: CPEB3 Ribozyme (parent)
chain: UAACAGGGGGCCACAGCAGAAGCGUUCACGUCGCAGCCCCUGUCAGAUUCUGGUGAAUCUGCGAAUUCUGCUGUAUAUCUC

Variants of: B1
Experiment: self-cleavage, relative activity (ratio to wild type); higher = more cleavage; in vitro, sequencing
Procedure, shortened: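 Libraries of CPEB3 self-cleaving ribozyme mutants came from rounds of error-prone PCR and carried barcodes, which DNA sequencing matched to variants. In vitro transcription used T7 RNA polymerase at 37°C for 5 hours, with a further 15 min in DNase I before EDTA stopped the reaction; the ribozymes cleaved during both steps. The RNA was reverse transcribed with template switching and sequenced on Illumina. Relative activity is the cleaved/total read fraction of a variant divided by that of the unmutated ribozyme, averaged over three batches with at least 5 reads.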

| Variant | self-cleavage |
| --- | --- |
| UAACAGGGGGCCACGGCAGAAGCGUUCACAUCGCAGCCCCUGCCAGAUUCUGGUGAGUCUGCGAAUUCUGCUGUAUAUCUC | 0.28 |
| UAACAGGGGGCCACGGCAGAAGCGUUCACUUCGCAGCCCCUGUCAGAUUCUGGCGUAUCUGCGAACUCUGCAGUAUAUCCC | 0.05 |
| UAACAGGGGGCCACGGCAGAAGCGCUCACGUCGCAGCCCCUGUCAGAUUCUGGUGAAUCUGCGGAUUCUGCUGUCUAUCUC | 0.1 |
| UAACAGGGGGCCACGGCAGAAGCGCUCGCGUCGCAGCCCCUGUCAGAUUCUGGUGAAUCUGCGAACUCUGCUGUAUAUCUC | 0 |
| UAACAGGGGGCCACGGCAGAAGCGUUCACGUCGCAGCCCCUGUCAGAUUCUGGUAAAUCUGCGAAUUCUGCCGUAUAUCUC | 1.07 |
| UAACAGGGGGCCACGGCAGAAGCUUUCACGUCGCAGCCCCUGUCAGAUUCCGGUGAAUCUGCGAAUUCUGCUGUAUAUCUC | 0.29 |
| UAACAGGGGGCCACGGCAGAAGCGUUCACGUCCCAGCCCCUGUCAGAUUCUGGGGAAUCCGCGAGCUCUGCCGUAUAUCUC | 0.06 |
| UAACAGGGGGCCACGGCAGAAGCGUCCACGUCGCAGCCCCUGUCGGAUUCUGGUGAAUCUGCGAAUACUGCUGUAUAUCUC | 0.14 |
| UAACAGGGGGCCACGGCAGAAGCGUUCACGUCGCAGCCCCUGUCAGAUUCUGGUUAAUCCGCGAAUGCUGCUGUAUAUCUC | 0.13 |
| UAACAGGGGGCCACGGCAGAAGCGGUCACGUCGCAGCCCCUGUUAGAUUCUGGUGGAUCUGCGAAUUCUGCUGUAUAUCUC | 0.26 |
| UAACAGGGGGCCACGGCAGAAGCGAUCACGUCGCAGCCCCUGUCAGACUCUGGUGAAUCCGCGAAUUCUGCUGUAUAUCUC | 0.03 |
| UAACAGGGGGCCACGGCAGAAGCGUCCGCGUCGCAGCCCCUGUCAGAUUCUGGUGAAUCUGCGAAUUCUGCUGUAUGUCUC | 0.11 |
| UAACAGGGGGCCACGGCAGAAGCGCUCACGUCGCAGCCCCUGUCAGAUUCUGGUGAAUCCGCGGAUUCUGCUGUAUAUCUC | 0.23 |
| UAACAGGGGGCCACGGCAGAAGCGUUCACGUCGCAGCCCCUGUCAGAUUCUGGUUAAUCUGCGGAUUCUGCUGUAUACCUC | 0.44 |
| UAACAGGGGGCCACGGCAGAAGCGCUCACGUCGCAGCCCCUGUCAGACUCUGGUGAAUCUGCGAGUUGUGCCGUAUAUCUC | 0 |
| UAACAGGGGGCCACGGCAGAAGCGCUCACGUCGCGGCCCCUGUCAGAUUCUGGUGAAUCUGCGAGUUCCGCUGUAUGUCUC | 0.2 |
| UAACAGGGGGCCACGGCAGAAGCGCUCACGUCGCAGCCCCUGUCAGAUUCUGGUGAAUCUGAGAAUUCUGCUGUACAUCUC | 0.27 |

| Variant | self-cleavage |
| --- | --- |
| UAACAGGGGGCCACGGCAGAAGCGCUCACGUCGCAGCCCCUGUCAGAUUCUGGUGAAUCUGCGAAUUCUGCCGUAUAUCUC | 0.47 |
| UAACAGGGGGCCACGGCAGAAGCGCUCACGUCGCAGCCCCUGUCAGAUUCUGGUGAAUCUGCGAAUUCUGCAGUAUAUCUC | 0.19 |
| UAACAGGGGGCCACGGCAGAAGCGUACACGUCGCAGCCCCUGUCGGAUUCUGGUGAAUCUGCGAAUUCUGCUGUAUAUCUC | 0.94 |
| UAACAGGGGGCCACGGCAGAAGCUCUCACGUCGCAGCCCCUGUCAGAUUCUCGUGAAUCCGCGAAUUCCGCUGUAUAUCUC | 0.1 |
| UAACAGGGGGCCACGGCAGAAGCGUUCACGUCACAACCCCUGUCAGAUUCUGGUGAAUCUGCGAAUUCUGCUGUAUAUCUA | 0.32 |
| UAACAGGGGGCCACGGCAGAAGCGCUCACGUCGCAGCCCCUGUCAGAUUCUGGUGAAUCUGCGAAUUCUGCUGUAUACCUC | 0.32 |
| UAACAGGGGGCCACGGCAGAAGCGUUCACAUCGCAGCCCCUGUCAGAUCCUGGUGAGUCUGCGAAUUCUGCUGUGUGUCUC | 0.14 |
| UAACAGGGGGCCACGGCAGAAGCGCUCACGUCGCAGCCCCUGUCAGAUUCCGGUGAAUCUGCGAAUUCUGCUGUAUAUCUC | 0.12 |
| UAACAGGGGGCCACGGCAGAAGCGUUCACGUCACAGCCCCUGUCAGAUCCUGGUGAAUCUGCGAAUUCUGCUGUAUAUCUC | 0.08 |
| UAACAGGGGGCCACGGCAGAAGCGUACACGUCGCAGCCCCUGUCAGAUUCUGGUGAAUCCGCGAAUUCUGCUGUAUAUCUC | 0.3 |
| UAACAGGGGGCCACGGCAGAAGCGCCCACGUCGCAGCCCCUGUCAGAUUCUGGUGAAUCUGCGAAUUCUGCUGUAUAUCUC | 0.29 |
| UAACAGGGGGCCACGGCAGAAGCGACCACGUCGCAGUCCCUGUCGGAUUCAGGUGAAUCUGCGAAUUCUGCUGUAUAUCUC | 0.08 |
| UAACAGGGGGCCACGGCAGAAGCGCUCACGUUGCAGCCCCUGUCAGAUUCUGGUGAAUCUGCGAAUUCUGCCGUACAUCUC | 0.05 |
| UAACAGGGGGCCACGGCAGAAGCGCUCACGUCGCAGUCCCUGUCAGAAUCUGGUGAAUCUGCGAAUUCUGCUGUAUAUCUC | 0.07 |
| UAACAGGGGGCCACGGCAGAAGCGAUCACGUCGCAGCCCCUGUCAGAUUCUGGUGAAUAUGCGAGUACUGCUGUAUAUCUC | 0.04 |
| UAACAGGGGGCCACGGCAGAAGCGUACACGUCGCAGCCCCUGUCAGAUUCUGGUGAAUCUGCGAAUUCCGCUGUAUAUCUC | 0.15 |
| UAACAGGGGGCCACGGCAGAAGCGUUCACGUCGCAGCCCCUUUCAGAUUCUGGUGAAUCUGCGAAUUCCGCUGUAUAUCUC | 0.33 |
